# Data taken from PMC4336329 (PLoS ONE, 2015).
# Out of some 310,000 compounds screened, about 14,000 (4.5%) showed an effect of 50% or more. Effects have a minus sign here. Some of the results follow.
# Target: human ether-à-go-go-related gene (hERG) potassium channel (human, UniProt Q12809)
# Assay: primary screen, population patch clamp on CHO cells stably expressing hERG
# 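Note: peak tail current of the secondary pulse compared with the same well before compound.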
# Chain of human ether-à-go-go-related gene (hERG) potassium channel (Q12809 whole entry, looked up): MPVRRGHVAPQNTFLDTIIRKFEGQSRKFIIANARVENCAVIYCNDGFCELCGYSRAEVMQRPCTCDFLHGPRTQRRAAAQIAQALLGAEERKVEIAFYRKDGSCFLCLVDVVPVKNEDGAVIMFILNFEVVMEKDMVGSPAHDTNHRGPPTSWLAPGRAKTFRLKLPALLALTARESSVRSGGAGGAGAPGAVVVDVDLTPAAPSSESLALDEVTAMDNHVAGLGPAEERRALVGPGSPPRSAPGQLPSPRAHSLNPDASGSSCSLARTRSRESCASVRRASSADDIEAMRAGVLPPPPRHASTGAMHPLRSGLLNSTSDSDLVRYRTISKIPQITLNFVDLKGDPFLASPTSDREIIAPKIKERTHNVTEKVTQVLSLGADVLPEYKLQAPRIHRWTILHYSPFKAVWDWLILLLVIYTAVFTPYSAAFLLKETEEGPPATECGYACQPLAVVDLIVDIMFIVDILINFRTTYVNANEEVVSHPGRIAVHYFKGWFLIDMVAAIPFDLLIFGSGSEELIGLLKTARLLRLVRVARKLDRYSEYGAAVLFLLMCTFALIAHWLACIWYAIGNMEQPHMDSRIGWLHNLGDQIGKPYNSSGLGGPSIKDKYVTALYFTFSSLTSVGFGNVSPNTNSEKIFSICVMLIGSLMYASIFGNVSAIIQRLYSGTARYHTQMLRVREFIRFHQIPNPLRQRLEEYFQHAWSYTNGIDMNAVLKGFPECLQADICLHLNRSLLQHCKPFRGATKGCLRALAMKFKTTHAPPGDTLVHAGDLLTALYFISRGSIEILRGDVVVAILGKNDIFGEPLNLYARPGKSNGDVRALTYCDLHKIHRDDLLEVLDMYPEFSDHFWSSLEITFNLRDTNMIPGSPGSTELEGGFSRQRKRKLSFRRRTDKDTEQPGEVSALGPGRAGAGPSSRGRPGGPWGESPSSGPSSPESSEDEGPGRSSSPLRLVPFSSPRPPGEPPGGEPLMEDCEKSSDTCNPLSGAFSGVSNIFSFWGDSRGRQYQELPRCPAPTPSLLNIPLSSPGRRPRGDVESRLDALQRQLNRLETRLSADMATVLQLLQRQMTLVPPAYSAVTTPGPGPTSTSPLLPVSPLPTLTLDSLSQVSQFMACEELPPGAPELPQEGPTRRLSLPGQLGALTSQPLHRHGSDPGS
row,SMILES,"hERG current change (%, negative = inhibition) at 10uM"
1,O=C(Cn1cnc2c(nnn2Cc2ccc(F)cc2)c1=O)NCc1ccc2c(c1)OCO2,-17.2%
2,CCCCNCc1cc2ccccc2o1.Cl,-6.61%
3,COc1ccccc1N1CCN(C(=S)Nc2ccc(F)cc2)CC1,19%
4,CC1=Nc2ccccc2/C1=C/c1c(O)n(C)c(=O)[nH]c1=O,19.7%
5,O=C(NCC1CCCO1)c1ccc(-c2ccccc2Cl)o1 (stereo not shown),1.7%
6,Cc1ccccc1-c1ccc(/C=C2/SC(N3CCOCC3)=NC2=O)o1,-15.9%
7,Cl.O=C1CSC(c2cn(-c3ccccc3)nc2-c2ccc3c(c2)OCCO3)N1CCN1CCOCC1 (stereo not shown),-21.2%
8,COc1ccc(/C=C/c2ccc(=O)n(Cc3ccccc3)n2)cc1,-16.5%
9,C/C(=N\NC(=O)c1ccccc1)c1cc2cc([N+](=O)[O-])ccc2oc1=O,-9.86%
10,Cc1ccc(S(=O)(=O)[O-])cc1.c1cnc2c(c1)ccc1ccc[nH+]c12,26.4%
11,CCCc1nn2c(=O)cc(CSCC(=O)Nc3ccc(F)cc3)nc2s1,-1.51%
12,CCOC(=O)c1c(CC(C)C)csc1N,10.4%
13,Cc1ccc(-c2noc(CCCC(=O)Nc3cccnc3)n2)cc1,-12.9%
14,CS(=O)(=O)Nc1ccc(C2=NN(S(C)(=O)=O)C(c3cccs3)C2)cc1 (stereo not shown),-49%
15,Cc1cccc(N2C(=O)CC(N3CCN(C(=O)c4ccccc4)CC3)C2=O)c1 (stereo not shown),2.35%
16,O=C(NCCN1CCOCC1)c1cn(CCc2ccccc2)nn1,-1.96%
17,COc1ccccc1CNC(=O)COC(=O)Cc1ccc(F)cc1,8.81%
18,CN(c1ccc(C(=O)Nc2ccccc2Sc2ccccc2)cc1)S(C)(=O)=O,-20.1%
19,CCOC(=O)CCn1nc(-c2ccc(C)cc2)c2ccccc2c1=O,-29.8%
20,Cc1cc(C)cc(OCC(=O)Nc2ccncc2)c1,-18.9%
21,CC(=O)NN1C(=O)c2ccccc2NC1c1ccco1 (stereo not shown),15.7%
22,Cc1ccc(S(=O)(=O)NCCC(=O)N2CCCC(C)C2)cc1 (stereo not shown),-22.3%
23,O=C(Nc1ccc(SC(F)F)cc1)c1cccc2nc3ccccc3nc12,12.7%

row,SMILES,"hERG current change (%, negative = inhibition) at 10uM"
1,Cc1ccc(NC(=O)C2CC3CCC2C3)c(Br)c1 (stereo not shown),11.2%
2,COc1ccc(OC)c(C(O)C2CCCCN2)c1.Cl (stereo not shown),4.37%
3,O=C(NCC1CC1)c1ccccc1Cl,11.6%
4,CCOC(=S)SCC(=O)N1CCc2ccccc2C1C1C(=O)CCCC1=O (stereo not shown),10.2%
5,Cc1ccc2nc(-c3ccncc3)cc(C(=O)NCc3ccccc3F)c2c1,17.5%
6,COC(=O)CSC(C)C(=O)Nc1nnc(C(C)C)s1 (stereo not shown),5.65%
7,Cc1cccc(NC(=O)CSc2nc3c(oc4ccccc43)c(=O)n2-c2ccccc2)c1,-3.41%
8,CS(=O)(=O)N(Cc1ccccc1)c1ccccc1C(=O)N1CCN(c2ccccc2)CC1,-46.6%
9,N/C(=N\c1nc(CSc2ccc(Cl)cc2)cc(=O)[nH]1)Nc1cccc2ccccc12,3.98%
10,CCCc1nnc(NC(=O)CCC(=O)N2CCN(CCOc3ccc(C)cc3)CC2)s1,-51.2%
11,Cc1ccc2c(c1)/C(=C/c1ccc(F)cc1)C(=O)N2,10.5%
12,O=C(NCCNC(=O)c1ccc(-c2ccc(Cl)c(Cl)c2)o1)c1cnccn1,-71.6%
13,CCCc1c(O)c2ccccc2[nH]c1=O,17.3%
14,O=C(Cc1ccccc1)NCCS(=O)(=O)N1CCN(c2ccccc2)CC1,7.16%
15,COc1cc2c(c(O)c1OC)-c1c(cc(OC)c(OC)c1OC)C[C@@H](C)[C@@H](C)C2,-78.6%
16,O=C(c1ccccc1)N1CCn2c1nc1ccccc12,-5.17%
17,O=S(=O)(Nc1cccnc1)c1cc(Cl)ccc1Cl,9.51%
18,Cc1nc2ccccn2c1C(=O)NN=C1C2CC3CC(C2)CC1C3,-6.98%
19,CC(C)(C)CN1CCC(Oc2cccc(C(=O)N3CCC[C@H]3CO)c2)CC1,28.2%
20,COc1ccccc1-n1c(SCC(=O)N2CCOCC2)nc2ccccc2c1=O,-3.48%
21,O=C(NC(Cc1ccc2c(c1)OCO2)C(=O)NC(Cc1ccccc1)C(=O)O)c1ccccc1 (stereo not shown),7.03%
22,CCN1C(=O)/C(=C2\SC(=S)N(c3c(C)n(C)n(-c4ccccc4)c3=O)C2=O)c2ccccc21,9.96%
23,CC(OC(=O)C1CCN(c2ccc(C(F)(F)F)cn2)CC1)C(=O)NC1CCCCC1C (stereo not shown),-9.07%

row,SMILES,"hERG current change (%, negative = inhibition) at 10uM"
1,N#Cc1ccccc1NC1=CC(=O)CCC1,7.49%
2,O=C(Cc1ccccc1)NCC(=O)OCc1ccccc1F,11.3%
3,CCSc1nnc(NC(=O)CSc2nnc(C)c(=O)n2N)s1,-0.337%
4,COc1cc(C(O)CNC(C)C)cc(F)c1OC (stereo not shown),5.45%
5,Cc1ccc(C2=NS(=O)(=O)N(C)C(C(=O)NCc3ccccc3)=C2)cc1,-0.52%
6,O=C(CSc1ccccn1)Nc1ccc2[nH]c(=O)[nH]c2c1,6.76%
7,CC(NC(=O)C1CCC(C)(C(=O)O)C1(C)C)c1ccccc1 (stereo not shown),10.7%
8,O=C(/C=C/c1ccco1)Nc1ccc(S(=O)(=O)N2CCOCC2)cc1,3.89%
9,COC(=O)COc1cccc(NC(=O)COc2ccccc2)c1,7.31%
10,Cc1ccsc1/C=C1\SC(=S)N(CC2CCCO2)C1=O (stereo not shown),1.89%
11,O=C(Nc1nonc1NC(=O)c1cccs1)c1cccs1,19.2%
12,COc1ccc(C2C=C(c3ccccc3)Nc3nnnn32)cc1 (stereo not shown),10.2%
13,CC(=O)c1ccc(N=Nc2ccc(N)cc2)cc1,17.5%
14,CCN=C1S/C(=C\c2ccc(Sc3ccc(Cl)cc3)o2)C(=O)N1CC,-7.98%
15,CN(C(=O)COC(=O)/C=C/c1ccc(F)cc1)c1c(N)n(Cc2ccccc2)c(=O)[nH]c1=O,10.3%
16,O=C(CCc1ccccc1)NCc1ccc(F)cc1,0.582%
17,O=C(CCCOc1ccccc1)N1CCN(C(=O)c2ccco2)CC1,-35.4%
18,Cc1ccc2[nH]c(=O)c(CN(CCCN(C)C)C(=O)Nc3cccc(Cl)c3)cc2c1,-53.6%
19,Clc1ccc(SCNc2ccccc2Cl)cc1,20.9%
20,CCOC(=O)C1CCN(S(=O)(=O)c2ccc3c(c2)N(C(C)=O)CC(C)S3)CC1 (stereo not shown),-48%
21,CC(=O)Nc1nc(C)c(Cc2ccccc2)c(=O)[nH]1,-1.04%
22,Cn1c(=O)[nH]c(=O)c2c1nc(SCC(O)CCl)n2Cc1ccccc1 (stereo not shown),-22.4%
23,Oc1ccccc1-c1cc(-c2ccc(Cl)cc2)n[nH]1,19.2%

row,SMILES,"hERG current change (%, negative = inhibition) at 10uM"
1,Cc1ccc(-c2[nH]c3cc(C(N)=O)ccc3c(=O)c2O)cc1,15.4%
2,COc1cccc(N2CCN(C(=O)Cn3c(=O)oc4ccccc43)CC2)c1,-5.77%
3,COc1cccc(C(C(=O)NC2CCCCC2)N(Cc2ccco2)C(=O)c2ccccn2)c1 (stereo not shown),-5.41%
4,COc1ccccc1C(=O)O/N=C(\N)c1ccc(Cl)cc1,-11.4%
5,CCS(=O)(=O)N1CCN(c2ccc([N+](=O)[O-])c(NCC3CCCO3)c2)CC1 (stereo not shown),-46.2%
6,CCN(CC)C(=O)C(Oc1ccc(S(=O)(=O)N2CCCC2)cc1[N+](=O)[O-])c1ccccc1 (stereo not shown),-12.9%
7,COc1cc(C2C3=C(CC(C)(C)CC3=O)N(C)C(=O)N2C)cc(OC)c1OC (stereo not shown),7.08%
8,CCOC(=O)c1[nH]c2ccccc2c1NC(=O)CN1CCCCC1,-33.6%
9,S=c1[nH]ncn1-c1ccccn1,16.7%
10,Cc1ccc(C(=O)NCCN2CCOCC2)cc1,12%
11,Cc1ccc(S(=O)(=O)N2CCN(Cc3cc(=O)n4ccccc4n3)CC2)cc1C,-40.5%
12,CCOC(=O)c1sc(=S)n(C)c1C,12%
13,COc1ccc(CC(=O)NNS(=O)(=O)c2ccc(F)cc2)cc1OC,0.969%
14,COc1ccc(CCN(C)C(=O)C23CC4CC(CC(Cl)(C4)C2)C3)cc1OC,-12%
15,CC1CN(Cc2cc(=O)[nH]c(C3CC3)n2)CC(C)O1 (stereo not shown),18.9%
16,O=C(COc1ccc([N+](=O)[O-])cc1)Nc1ccc(CN2CCOCC2)cc1,-52.3%
17,Cc1cc(C)c2c(CN3CCN(Cc4ccccc4)CC3)cc(=O)oc2c1.Cl,-66.9%
18,CC(CC(=O)N1CCN(c2ccccc2F)CC1)c1ccccc1 (stereo not shown),-4.67%
19,Cn1ccnc1SCCNC(=O)C1CCC(=O)N(Cc2ccc(Cl)cc2)C1 (stereo not shown),-3.3%
20,O=C(Cn1c(=O)oc2cc(S(=O)(=O)N3CCCC3)ccc21)N1CCN(c2ccccc2)CC1,-0.111%
21,Cc1cccc(N(C)C(=O)CCS(=O)(=O)c2cccc3nonc23)c1,-6.05%
22,CC(C)Cn1c(=O)c2ccccc2n2c(CCC(=O)NC3CCN(Cc4ccccc4)CC3)nnc12,-39.4%
